Test results from PubChem BioAssay AID651820 (National Center for Advancing Translational Sciences (NCATS), 2012).
Hit rate of the full screen: of about 340,000 compounds, about 12,000 (3.5%) were called active. This list was built around the results that the source calls inconclusive (neither active nor inactive); the mix of calls is not that of the screen. Calls come from the whole dose curve; as a rule, active = well fitted inhibition curve with a large enough effect; inconclusive = small, poorly fitted or top-dose-only effect, or another doubt; inactive = no such curve, though single readings can be large or run the other way. No potency is given beside an inconclusive call; the fits are too rough.

Test: qHTS Assay for Inhibitors of Hepatitis C Virus (HCV)
Conditions: Huh7.5.1 HCVcc-Cre (HCVcc is cell-culture hepatitis C virus) infection, luciferase reporter, 44 h; activity change, negative = inhibition: at 41.8 µM (top of the series) unless noted
Procedure, shortened: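 1,000 cells/well; 4 h culture; + compound; + HCVcc-Cre (~0.5 moi); 44 h; luciferase substrate, RT 15 min; read 15 sec.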
% is set by controls: 0 for no effect and ±100 for the full control effect; potency is the fitted concentration of half-maximal effect; tags give direction and shape of the fitted curve.

Row | SMILES | Potency | activity change, negative = inhibition
1 | C=CCNC(=O)c1onc(CSc2cc(C)cc(C)c2)c1C(=O)NCC=C | inconclusive [inhibitor, full curve, poor fit] | 
2 | Cc1ccc(N2C(=O)c3cccc([N+](=O)[O-])c3C2=O)cc1C | inactive | 
3 | COc1ccc(CCn2c(C)cc(C(=O)CSc3nnnn3-c3ccccc3)c2C)cc1OC | inconclusive [inhibitor, single point] | 
4 | CC1CCCN(S(=O)(=O)c2cc3c4c(c2)CCN4C(=O)CC3)C1 (stereo not given) |  | inactive: -1.14% [at 8.37 µM]
5 | COc1cccc(C(=O)COc2cccc(NC(=O)c3cccc([N+](=O)[O-])c3)c2)c1 | active: 8.91 µM | 
6 | Cc1cc(Br)ccc1OCCOCCN1CCCC1 | inconclusive [inhibitor, partial curve] | 
7 | O=C(Nc1nnc(C2CC2)s1)c1n[nH]c(=O)c2ccccc12 | inactive | 
8 | C=CCNc1nc(SC)nc2ccsc12 | inconclusive [inhibitor, partial curve] | 
9 | O=C(CSc1nc2ccccc2c(=O)n1Cc1ccc(C(=O)NC2CC2)cc1)NCc1ccco1 | inconclusive [inhibitor, full curve] | 
10 | CCc1ccccc1NC(=O)CN1CCN(C(=O)C(C)NC(=O)c2ccc(Cl)cc2)CC1 (stereo not given) | inconclusive [inhibitor, partial curve] | 
11 | CC(C)(C)OC(=O)N1CCN(c2ccc(CNC(=O)c3ccc(Cl)cc3)cc2)CC1 | inconclusive [inhibitor, single point] | 
12 | CCN(CC)c1nc(Oc2ccc(C(=O)OC)cc2)nc(N2CCOCC2)n1 | inconclusive [inhibitor, partial curve] | 
13 | CC(C)NC(=O)C(=O)NNC(=O)CCc1ccccc1 | inactive | 
14 | CCOc1cc(C(=S)N2CCCCC2)ccc1OS(=O)(=O)c1ccc(Br)cc1 | inconclusive [inhibitor, single point] | 
15 | CCCN(CCC)C(=O)CCSCCC(=O)N(CCC)CCC | inactive | 
16 | COc1ccc(C(=O)NN/C(=N/S(=O)(=O)c2ccc(C)cc2)c2ccccc2)cc1 | inactive | 
17 | CC(=O)Nc1scc(-c2ccccc2)[n+]1-c1ccc(C)cc1 | inconclusive [inhibitor, single point] | 
18 | O=C(Cc1c[nH]c2ccccc12)NCc1ccccc1F | inactive | 
19 | Cn1c(SCC(=O)c2ccc(O)cc2O)nnc1-c1ccccc1 | inconclusive [inhibitor, single point] | 
20 | Nc1ccc(N(CCO)CCO)cc1 | inactive | 
21 | Cc1cc(N/N=C/c2ccc([N+](=O)[O-])o2)nc2ccccc12 | active: 10 µM | 
22 | O=C(CN1CCN(c2ccccc2O)CC1)Nc1cc([N+](=O)[O-])ccc1Cl | inactive | 
23 | O=C(Nc1ccccc1C(=O)Nc1ccncc1)c1ccccc1 | inconclusive [inhibitor, single point] | 
24 | CCOC(=O)N1CCN(Cc2nnc(-c3ccccc3C)o2)CC1 | inactive | 

Row | SMILES | Potency | activity change, negative = inhibition
25 | Cc1cc(C)nc(/N=C(\N)Nc2ccc(OCc3ccccc3)cc2)n1 | active: 10 µM | 
26 | Cc1ccc(N(C)S(=O)(=O)c2ccc(-c3cnc(C4CC4)o3)cc2)cc1 | inactive | 
27 | COc1ccc(Br)cc1C(=O)Nc1cccc(-c2nnc(-c3ccco3)o2)c1 | inconclusive [inhibitor, partial curve] | 
28 | CCN(CC)S(=O)(=O)c1ccc(N2CCOCC2)c(NC(=O)c2cccc3c(=O)c(C)c(-c4ccccc4)oc23)c1 | active: 8.91 µM | 
29 | CC(OC(=O)c1cccc(S(=O)(=O)N2CCCCC2)c1)C(=O)NC1CCCCC1C (stereo not given) | inconclusive [inhibitor, single point] | 
30 | O=C(NCCN1CCN(c2cccc(Cl)c2)CC1)c1cccn2c(=O)c3ccccc3nc12 | inactive | 
31 | C[C@@]12C(=O)Nc3ccc(Br)cc3C(=O)N1[C@H]1c3cc(Br)ccc3OC[C@@H]1[C@@H]2c1ccccc1 | inconclusive [inhibitor, full curve] | 
32 | COc1ccc(N(C)S(=O)(=O)c2cccc(C(=O)Nc3ccc(OC)nc3)c2)cc1 | inconclusive [inhibitor, single point] | 
33 | Cc1c(C(=O)N/N=C/c2ccc(O)cc2)sc(=S)n1C | inactive | 
34 | COc1cc(C(=O)NC(=S)Nc2ccccc2N2CCCC2)cc(OC)c1OC | active: 11.2 µM | 
35 | CCCNC(=O)C1(CC2CC(c3ccccc3)=NO2)CCN(C(=O)C2CCCC2)CC1 (stereo not given) | inactive | 
36 | Cc1nc([N+](=O)[O-])c(Sc2nc3ccc([N+](=O)[O-])cc3[nH]2)n1Cc1ccccc1 | inconclusive [inhibitor, single point] | 
37 | COc1ccccc1C(=O)N1CCCC(c2nc(-c3cc(OC)c(OC)c(OC)c3)no2)C1 (stereo not given) | inactive | 
38 | COc1cc(C2C(C#N)=C(C)NC3=C2C(=O)c2ccccc23)cc(OC)c1OC (stereo not given) | inconclusive [inhibitor, full curve] | 
39 | O=C(CCNC(=O)C1CCN(S(=O)(=O)c2ccccc2)CC1)Nc1cccc(C(F)(F)F)c1 | inactive | 
40 | O=C(COC(=O)CCSc1ccccc1Cl)Nc1ccc(F)cc1F | inactive | 
41 | CCO[C@@H]1OC(C(=O)N2CCN(Cc3ccc4c(c3)OCO4)CC2)=C[C@H](c2ccc(Br)cc2)[C@H]1CCCO | inconclusive [inhibitor, partial curve] | 
42 | Cc1cccc(C(=O)c2cnc3ccccc3c2-c2ccccc2)c1 | inconclusive [inhibitor, single point] | 
43 | COC(=O)c1cc(OC)c(OC)cc1NC(=O)CN1CCCCC1 | inconclusive [inhibitor, partial curve] | 
44 | COC(=O)C[C@H](NC(=O)Cn1cc(C)c(=O)[nH]c1=O)C(=O)OC | inactive | 
45 | O=C(CSCCNS(=O)(=O)c1ccccc1)Nc1ccccc1 | inconclusive [inhibitor, single point] | 
46 | CCOC(=O)Cn1nnnc1CN(Cc1cccs1)Cc1cc2cc(C)ccc2[nH]c1=O | inactive | 
47 | CCCCNC(=S)N1CCN(C(c2ccccc2)c2ccccc2)CC1 | inconclusive [inhibitor, single point] | 
48 | CCC(C)N(C(=O)C(F)(F)F)C(C(=O)NC1CCCCC1)c1ccncc1 (stereo not given) | inconclusive [inhibitor, single point] | 

Row | SMILES | Potency | activity change, negative = inhibition
49 | Cc1ccc2c(CN3CCN(Cc4ccc5c(c4)OCO5)CC3)cc(=O)oc2c1C | inconclusive [inhibitor, partial curve] | 
50 | CC(Sc1ncnc2c1cnn2-c1ccccc1)C(=O)NCC1CCCO1 (stereo not given) | inconclusive [inhibitor, single point] | 
51 | COc1ccc(-c2cc(C(=O)Nc3ccc(S(=O)(=O)Nc4ncccn4)cc3)c3ccccc3n2)cc1 | inactive | 
52 | O=C(Nc1ccc(Br)cc1)c1ccc(CSC2=NCCS2)cc1 | inconclusive [inhibitor, partial curve] | 
53 | Cc1cc(C)c2nc(NC(=O)c3cccc(S(=O)(=O)N4CCc5ccccc54)c3)sc2c1 | inconclusive [inhibitor, full curve] | 
54 | FC(F)(F)Oc1ccc(NC(=S)NCc2ccccc2)cc1 | inconclusive [inhibitor, single point] | 
55 | CC(=O)c1c(C)[nH]c(C(=O)OCc2cc(-c3ccco3)on2)c1C | inconclusive [inhibitor, partial curve] | 
56 | CCNc1ccc2noc3c2c1C(=O)c1ccccc1-3 | inconclusive [inhibitor, single point] | 
57 | COc1ccc(CN(C)CC(=O)Nc2ccc(N3CCOCC3)cc2)cc1OC | inactive | 
58 | CCOc1ccc2[nH]c(C(=O)N/N=C/c3ccc(OC)cc3)cc2c1 | inconclusive [inhibitor, full curve] | 
59 | COc1ccc(C)cc1NC(=O)CN1CCCN(S(=O)(=O)c2ccc(Br)cc2)CC1 | inconclusive [inhibitor, partial curve] | 
60 | CC1CC2(CCCCC2)N2C(=O)C(=O)c3cccc1c32 (stereo not given) | inconclusive [inhibitor, partial curve] | 
61 | COc1cc(/C=N/OCC(=O)NC2CCCCC2C)ccc1OCc1ccc(Cl)cc1 (stereo not given) | inconclusive [inhibitor, partial curve] | 
62 | COCCn1c(=O)[nH]c2cc(C(=O)NC3CCCCCC3)ccc2c1=O | inconclusive [inhibitor, single point] | 
63 | CC(C)(CNC(=O)C1CCN(S(=O)(=O)c2cc([N+](=O)[O-])ccc2Cl)CC1)N1CCOCC1 | inconclusive [inhibitor, single point] | 
64 | CC1Cc2ccccc2N1C(=O)CSc1nnc(Cc2ccccc2)n1CCc1ccccc1 (stereo not given) | inconclusive [inhibitor, single point] | 
65 | O=C(NCCCN1CCN(Cc2ccccc2Cl)CC1)Nc1ccccc1 | inconclusive [inhibitor, single point] | 
66 | COc1ccc(NC(=O)/C(Cl)=C(/Cl)S(=O)Cc2ccccc2Cl)cn1 (stereo not given) | active: 2.82 µM | 
67 | CCOc1ccc(OCCNC(=O)c2cc(C3CC3)nc3c2cnn3C(C)C)cc1 | active: 3.16 µM | 
68 | CCN(CC)CCCn1c(=S)[nH]c2ccc(Cl)cc2c1=O | inconclusive [inhibitor, single point] | 
69 | O=C(NNc1ccccc1Br)C(O)(c1cccc(C(F)(F)F)c1)c1cccc(C(F)(F)F)c1 | inconclusive [inhibitor, single point] | 
70 | COc1ccc(S(=O)(=O)Cc2ccc(C(=O)NC(C)C)o2)cc1 | inactive | 
